Data taken from PubChem BioAssay AID1468 (National Center for Advancing Translational Sciences (NCATS), 2008).
Screen size: about 280,000 compounds; about 1,100 (0.39%) were called active. This list was built around the results that the source calls inconclusive (neither active nor inactive); the mix of calls is not that of the screen. The call rests on the fitted dose curve; in most records, active means well fitted inhibition curve with a large enough effect; inconclusive means small, poorly fitted or top-dose-only effect, or effect the other way; inactive means flat fitted curve, though single readings scatter. Potencies of inconclusive entries are left out as doubtful fits.

Each molecule was assayed against Microtubule-associated protein tau (Homo sapiens) (UniProt P10636) (assay: qHTS for Inhibitors of Tau Fibril Formation, Fluorescence Polarization). Settings: K18 P301L tau heparin fibrillization, Alexa594 FP, 6 h; series mostly up to 57.7 µM; activity, negative = inhibition: at the top concentration.
Method in brief: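 FP of Alexa 594-tau after heparin (20 uM) induction. Substrate: human K18 P301L, 15 uM unlabeled, 0.24 uM labeled. Buffer 100 mM sodium acetate pH 7. 6 hr, 37 C.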
Further: nearly all actives have a fitted effect of over 55% in size.
On the % scale 0 is the no-effect control and ±100 the full control effect; potency means the concentration at half of the fitted maximal effect; tags describe the fitted curve by direction and shape.

Sequence of UniProt P10636 (P10636 whole entry, looked up): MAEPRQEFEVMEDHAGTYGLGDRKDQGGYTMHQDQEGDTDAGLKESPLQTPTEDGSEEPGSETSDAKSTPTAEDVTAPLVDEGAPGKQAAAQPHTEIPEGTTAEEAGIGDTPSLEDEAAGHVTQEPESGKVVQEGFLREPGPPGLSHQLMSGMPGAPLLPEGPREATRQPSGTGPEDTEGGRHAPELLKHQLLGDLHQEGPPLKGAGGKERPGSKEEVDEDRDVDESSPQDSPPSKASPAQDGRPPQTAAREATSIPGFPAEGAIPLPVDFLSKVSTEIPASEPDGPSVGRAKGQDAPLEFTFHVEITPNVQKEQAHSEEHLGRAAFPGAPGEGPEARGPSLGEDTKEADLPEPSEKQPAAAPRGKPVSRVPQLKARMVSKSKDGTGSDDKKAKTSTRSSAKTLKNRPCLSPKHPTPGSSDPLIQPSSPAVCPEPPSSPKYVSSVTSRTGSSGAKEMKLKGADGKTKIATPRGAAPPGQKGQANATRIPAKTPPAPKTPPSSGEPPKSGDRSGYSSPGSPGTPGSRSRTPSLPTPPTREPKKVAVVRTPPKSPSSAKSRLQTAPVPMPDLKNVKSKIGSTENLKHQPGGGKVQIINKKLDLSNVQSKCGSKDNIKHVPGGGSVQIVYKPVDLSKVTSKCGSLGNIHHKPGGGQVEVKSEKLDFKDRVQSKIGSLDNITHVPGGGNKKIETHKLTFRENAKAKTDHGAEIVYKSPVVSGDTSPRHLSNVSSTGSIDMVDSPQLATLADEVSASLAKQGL

**Q.** Cc1ccc(-c2noc(CN(C3CCCCC3)S(=O)(=O)c3ccc(F)cc3)n2)cc1 was tested. Which Potency did it give?
**A.** Its Potency is inconclusive [inhibitor, single point].

**Q.** Which Potency does the source give for Fc1ccc(SCCc2ccncc2)cc1 here?
**A.** The Potency was “inactive”.

**Q.** Cc1ccc(NCC(=O)N=Nc2c(O)[nH]c3ccc([N+](=O)[O-])cc23)cc1 was tested. Which “activity, negative = inhibition” value did it give?
**A.** The value was inactive: 2.89%.

**Q.** With COc1ccc(N=c2ssnc2Cl)cc1 as the molecule, how does the Potency read?
**A.** The Potency was inconclusive [inhibitor, partial curve].

**Q.** For Cc1ccc(-c2cc(C(=O)N3CCN(S(=O)(=O)c4ccc(Br)s4)CC3)[nH]n2)cc1C, which Potency is on record?
**A.** Its Potency is inconclusive [inhibitor, single point].

**Q.** How did the Potency turn out when Cc1ccc(C2=NOC(=O)/C2=C\C=C\c2ccccc2)cc1 was run?
**A.** Its Potency is active: 14.1 µM.

**Q.** Which Potency does the source give for Fc1ccc(Nc2nc(-c3cccnc3)nc3ccccc23)cc1 here?
**A.** The Potency was inconclusive [inhibitor, partial curve].

**Q.** With CNc1nc(Nc2ccc(Br)cc2)nc(N)c1[N+](=O)[O-] as the molecule, how does the Potency read?
**A.** The Potency was inconclusive [inhibitor, partial curve, poor fit].

**Q.** How did the Potency turn out when Cc1ccc(S(=O)(=O)n2nc(-c3ccccc3)nc2NCc2ccccc2Cl)cc1 was run?
**A.** Its Potency is inconclusive [inhibitor, full curve].

**Q.** With COc1ccc(CNc2nc(-c3ccco3)nn2S(=O)(=O)c2ccc3ccccc3c2)cc1OC as the molecule, how does the Potency read?
**A.** Its Potency is inconclusive [inhibitor, partial curve].

**Q.** Which Potency does the source give for CCN(CC)S(=O)(=O)c1ccc(NC(=O)COC(=O)c2ccc(-n3nc(C)cc3C)cc2)cc1 here?
**A.** Its Potency is inconclusive [inhibitor, partial curve].

**Q.** C/C(=N\Nc1ccc(F)cc1F)c1cccs1 was tested. Which “activity, negative = inhibition” value did it give?
**A.** The value was inactive: -0.197%.

**Q.** O=C(Cn1nnc(-c2ccc(F)cc2)n1)Nc1ccc2c(c1)OCCO2 was tested. Which Potency did it give?
**A.** Its Potency is inconclusive [inhibitor, single point].

**Q.** How did the Potency turn out when CCCCOc1ccc(/C=C/C(=O)OCC(=O)c2c(N)n(C)c(=O)n(C)c2=O)cc1OCC was run?
**A.** The Potency was inconclusive [inhibitor, partial curve].

**Q.** O=C(/C=C1\C(=O)Nc2ccccc21)/C=C1\C(=O)Nc2ccccc21 was tested. Which Potency did it give?
**A.** Its Potency is inconclusive [inhibitor, partial curve].

**Q.** Which Potency does the source give for CCc1ccccc1OCCSc1nc(-c2cccs2)nc2cc(=O)[nH]n12 here?
**A.** Its Potency is inconclusive [inhibitor, partial curve].

**Q.** For COc1ccc(N(CC(=O)Nc2ccc(F)c(Cl)c2)S(=O)(=O)c2c(C)noc2C)cc1, which Potency is on record?
**A.** The Potency was inconclusive [inhibitor, partial curve].

**Q.** Cc1ccc(Cl)cc1N1CCN(C(=O)Cc2c(C(=O)O)c(C)cn2C)CC1 was tested. Which “activity, negative = inhibition” value did it give?
**A.** Its value is inactive: 1.89%.

**Q.** CC(C)(C)OC(=O)COc1cc(OCC(=O)OC(C)(C)C)c2c(=O)cc(-c3ccccc3)oc2c1 was tested. Which “activity, negative = inhibition” value did it give?
**A.** The value was inactive: 4.06%.

**Q.** Which Potency does the source give for O=c1c(-c2cc(-c3ccc(Cl)cc3)nc3c2COc2ccccc2-3)coc2ccccc12 here?
**A.** The Potency was inconclusive [inhibitor, partial curve].

**Q.** With O=C(Nc1nnc(C2CCCO2)s1)c1ccc(Br)cc1 (stereo not given) as the molecule, how does the Potency read?
**A.** The Potency was inconclusive [inhibitor, partial curve, poor fit].

**Q.** O=c1[nH]c2ccc(NCc3ccc(-c4ccccc4F)o3)cc2[nH]1 was tested. Which Potency did it give?
**A.** Its Potency is inconclusive [activator, full curve, poor fit].

**Q.** With CCOC(=O)CNC(=O)CCNS(=O)(=O)c1ccc2c(c1)c(=O)n(C)c(=O)n2C as the molecule, how does the Potency read?
**A.** The Potency was inconclusive [inhibitor, full curve, poor fit].

**Q.** How did the Potency turn out when C=CCn1c(-c2ccccc2)cc(SC)c(C#N)c1=O was run?
**A.** The Potency was inconclusive [inhibitor, partial curve, poor fit].

**Q.** CCN(CC)S(=O)(=O)c1ccc2c(c1)N(CC(=O)NCc1ccc(F)cc1)C(=O)CO2 was tested. Which “activity, negative = inhibition” value did it give?
**A.** The value was inactive: -1.07%.

**Q.** For CN(C)c1ccc(C2CC(c3c(O)n(C4CCCCC4)c(=O)[nH]c3=O)=Nc3ccccc3S2)cc1 (stereo not given), which “activity, negative = inhibition” value is on record?
**A.** The value was inactive: 6.42%.

**Q.** How did the Potency turn out when Cc1cc(C)c2oc(-c3cc(NC(=O)Cc4ccccc4)ccc3Cl)nc2c1 was run?
**A.** Its Potency is inconclusive [inhibitor, partial curve].

**Q.** With O=C(NCCCN1CCOCC1)c1ccccc1NS(=O)(=O)c1cc([N+](=O)[O-])ccc1Cl as the molecule, how does the Potency read?
**A.** The Potency was inconclusive [inhibitor, single point].

**Q.** Which “activity, negative = inhibition” value does the source give for O=C(Nc1ccccc1)C1=C[C@H](c2ccc(Br)cc2)C[C@H](OCc2ccc(CO)cc2)O1 here?
**A.** The value was inactive: 5.22%.

**Q.** How did the Potency turn out when COc1cccc(Nc2nc(N)nc(-c3oc4ccccc4c3C)n2)c1 was run?
**A.** Its Potency is inconclusive [inhibitor, partial curve].

**Q.** How did the Potency turn out when Cc1nn(C(C)(C)C)c(OC(=O)c2ccc(Br)o2)c1Sc1ccccc1 was run?
**A.** Its Potency is inconclusive [inhibitor, single point].

**Q.** With CS(=O)(=O)N(CC(=O)N/N=C/c1cc([N+](=O)[O-])ccc1Cl)c1ccccc1 as the molecule, how does the Potency read?
**A.** Its Potency is inconclusive [inhibitor, full curve, poor fit].

**Q.** How did the Potency turn out when COc1ccc(NC(=O)/C(=C/c2cccnc2)NC(=O)c2cccs2)cc1 was run?
**A.** The Potency was inconclusive [activator, partial curve].

**Q.** Nc1nc(Nc2ccccc2)nc(NCc2ccccc2)c1[N+](=O)[O-] was tested. Which Potency did it give?
**A.** The Potency was inconclusive [inhibitor, partial curve].

**Q.** CCCc1c(C(=O)Nc2ccc(N3CCOCC3)cc2)cnn1-c1ccccc1 was tested. Which Potency did it give?
**A.** The Potency was inconclusive [activator, partial curve].

**Q.** How did the Potency turn out when O=C(Nc1cccc(S(=O)(=O)C(F)F)c1)c1ccc(S(=O)(=O)N2CCCCC2)cc1 was run?
**A.** The Potency was inconclusive [inhibitor, partial curve].

**Q.** How did the “activity, negative = inhibition” value turn out when COc1ccccc1CNc1ncnc2c1c(-c1ccccc1)cn2-c1ccc(Br)cc1 was run?
**A.** Its value is inactive: 1.37%.

**Q.** CC1(C)CC(N=C2C([N+](=O)[O-])=CC=C3C2=NC2(CCCCC2)N3O)CC(C)(C)N1 was tested. Which Potency did it give?
**A.** The Potency was inconclusive [inhibitor, partial curve].

**Q.** Which Potency does the source give for COC(=O)c1cc(S(=O)(=O)N2CCN(c3cc(Cl)ccc3C)CC2)c[nH]1 here?
**A.** The Potency was inconclusive [inhibitor, partial curve].

**Q.** NNc1cc([N+](=O)[O-])cc2c1C(=O)N(Cc1ccccc1)S2=O (stereo not given) was tested. Which Potency did it give?
**A.** Its Potency is inconclusive [inhibitor, partial curve].

**Q.** How did the Potency turn out when Cc1ccc(NC(=O)CSc2nc(N)c3c4c(sc3n2)CSC(C)(C)C4)cc1 was run?
**A.** Its Potency is inconclusive [inhibitor, single point].

**Q.** Which Potency does the source give for O=C(Nc1c(C(=O)c2ccccc2)oc2ccccc12)c1ccc(F)cc1 here?
**A.** The Potency was inconclusive [inhibitor, single point].

**Q.** For Cc1ccc(NC(=O)CSc2nc3c(cc2C#N)C(=O)CCC3)cc1S(=O)(=O)N(C)C, which “activity, negative = inhibition” value is on record?
**A.** The value was inactive: -8.26%.

**Q.** Which Potency does the source give for CCN(c1ccc(NC(=O)CN2C(=O)NC3(CCOc4ccccc43)C2=O)cc1)C(C)C (stereo not given) here?
**A.** Its Potency is inconclusive [activator, partial curve].

**Q.** With O=C(CCn1nnc2ccccc21)Nc1nnc(COc2ccccc2F)s1 as the molecule, how does the “activity, negative = inhibition” value read?
**A.** Its value is inactive: -8.61%.

**Q.** How did the “activity, negative = inhibition” value turn out when COc1ccc(OC)c(NC(=O)N2CC(C)Oc3ccc(C)cc32)c1 (stereo not given) was run?
**A.** Its value is inactive: -4.17%.

**Q.** For CC(C)=CCc1c(O)cc2oc(C)cc(=O)c2c1O, which “activity, negative = inhibition” value is on record?
**A.** Its value is inactive: -0.744%.

**Q.** With COc1ccc(C(=O)Nc2nc(-c3nnn(-c4ccc(F)cc4F)c3C)ns2)cc1 as the molecule, how does the Potency read?
**A.** Its Potency is inconclusive [inhibitor, partial curve].

**Q.** With Cc1ccc(O)c(Nc2nc3ccccc3c3nncn23)c1 as the molecule, how does the Potency read?
**A.** Its Potency is inconclusive [activator, partial curve].

**Q.** O=C(CN1C(=O)/C(=C\c2cccs2)SC1=S)Nc1cccc(C(=O)O)c1 was tested. Which Potency did it give?
**A.** Its Potency is inconclusive [inhibitor, single point].

**Q.** For O=C(CN1CCN(C(=O)N2CCOCC2)CC1)Nc1ccc(Br)cc1, which “activity, negative = inhibition” value is on record?
**A.** Its value is inactive: -1.03%.

**Q.** With CCc1nc2scc(-c3cccs3)c2c(=O)o1 as the molecule, how does the Potency read?
**A.** The Potency was inconclusive [inhibitor, partial curve, poor fit].

**Q.** With CCOc1ccc(C(=O)Nc2ccc3oc(-c4cccc5ccccc45)nc3c2)cc1 as the molecule, how does the Potency read?
**A.** The Potency was inconclusive [inhibitor, partial curve].

**Q.** With Cc1ccc(-c2nc(C)c(CCNC(=O)C(=O)Nc3cc(C)ccc3C)s2)cc1 as the molecule, how does the “activity, negative = inhibition” value read?
**A.** The value was inactive: -9.69%.

**Q.** NS(=O)(=O)c1cccc(NC(=O)Nc2ccc(Cl)cc2)c1 was tested. Which Potency did it give?
**A.** Its Potency is inconclusive [inhibitor, full curve, poor fit].

**Q.** For Cc1csc2nc(-c3ccc(NS(=O)(=O)c4cccc(F)c4)cc3)cn12, which Potency is on record?
**A.** The Potency was inconclusive [inhibitor, single point].

**Q.** Which Potency does the source give for O=C(Nc1ccccc1)c1ccc(CSc2ccccn2)cc1 here?
**A.** Its Potency is inconclusive [inhibitor, partial curve].

**Q.** For O=C1C2C3C=CC(C3)C2C(=O)N1CNc1ccc(O)cc1 (stereo not given), which Potency is on record?
**A.** Its Potency is active: 8.91 µM.

**Q.** Which Potency does the source give for CCOC(=O)C1CCN(c2ncnc3c2cnn3-c2ccc(OC)cc2)CC1 here?
**A.** Its Potency is inconclusive [inhibitor, partial curve].

**Q.** CCCOc1ccc(C2=NC(c3ccncc3)=Nc3ccc(C)cc3N2)cc1 was tested. Which Potency did it give?
**A.** The Potency was inconclusive [activator, single point].

**Q.** Which Potency does the source give for Cc1c(Cc2ccccc2)sc(/N=C/c2c(O)ccc3ccccc23)c1C(N)=O here?
**A.** Its Potency is inconclusive [inhibitor, partial curve].

**Q.** With CCCNC(=O)c1ccccc1NC(=O)c1ccccc1SC as the molecule, how does the “activity, negative = inhibition” value read?
**A.** The value was inactive: 6.5%.

**Q.** For Cc1ccc(S(=O)(=O)Cc2cc(-c3ccc(Cl)cc3)no2)cc1, which Potency is on record?
**A.** The Potency was inconclusive [inhibitor, single point].

**Q.** Which Potency does the source give for CCOC(=O)C1=C(C)N[C@@]2(O)c3ccccc3C(=O)[C@@]12O here?
**A.** The Potency was inconclusive [inhibitor, partial curve].

**Q.** How did the Potency turn out when COc1cc2ncnc(NCc3cccs3)c2cc1OC was run?
**A.** Its Potency is inconclusive [inhibitor, single point].
